Measurements from PubChem BioAssay AID488969 (Vanderbilt High Throughput Screening Facility, 2010).
Whole data set: some 110,000 compounds, median “z-score” near -0.1, cut for the highest 2% near 2. The list shows a part of the results. Calls of active or inactive are those of the source.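 The calls were made as follows: active = z-score in the third read window above 3 or below -3; inactive = the rest.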

Biological target: Metabotropic glutamate receptor 8 (Rattus norvegicus) (UniProt P70579)
Assay: rat mGluR8 modulators via GIRK flux, primary screen, cell-based, thallium flux, HTS (AID 488969)
Settings: HEK293 rat mGluR8, GIRK (G protein-gated inwardly rectifying potassium channel) thallium flux, FluoZin2; at 10 µM; stronger effect = higher value; submaximal glutamate (EC20) added with thallium

UniProt P70579, sequence (P70579 whole entry, looked up): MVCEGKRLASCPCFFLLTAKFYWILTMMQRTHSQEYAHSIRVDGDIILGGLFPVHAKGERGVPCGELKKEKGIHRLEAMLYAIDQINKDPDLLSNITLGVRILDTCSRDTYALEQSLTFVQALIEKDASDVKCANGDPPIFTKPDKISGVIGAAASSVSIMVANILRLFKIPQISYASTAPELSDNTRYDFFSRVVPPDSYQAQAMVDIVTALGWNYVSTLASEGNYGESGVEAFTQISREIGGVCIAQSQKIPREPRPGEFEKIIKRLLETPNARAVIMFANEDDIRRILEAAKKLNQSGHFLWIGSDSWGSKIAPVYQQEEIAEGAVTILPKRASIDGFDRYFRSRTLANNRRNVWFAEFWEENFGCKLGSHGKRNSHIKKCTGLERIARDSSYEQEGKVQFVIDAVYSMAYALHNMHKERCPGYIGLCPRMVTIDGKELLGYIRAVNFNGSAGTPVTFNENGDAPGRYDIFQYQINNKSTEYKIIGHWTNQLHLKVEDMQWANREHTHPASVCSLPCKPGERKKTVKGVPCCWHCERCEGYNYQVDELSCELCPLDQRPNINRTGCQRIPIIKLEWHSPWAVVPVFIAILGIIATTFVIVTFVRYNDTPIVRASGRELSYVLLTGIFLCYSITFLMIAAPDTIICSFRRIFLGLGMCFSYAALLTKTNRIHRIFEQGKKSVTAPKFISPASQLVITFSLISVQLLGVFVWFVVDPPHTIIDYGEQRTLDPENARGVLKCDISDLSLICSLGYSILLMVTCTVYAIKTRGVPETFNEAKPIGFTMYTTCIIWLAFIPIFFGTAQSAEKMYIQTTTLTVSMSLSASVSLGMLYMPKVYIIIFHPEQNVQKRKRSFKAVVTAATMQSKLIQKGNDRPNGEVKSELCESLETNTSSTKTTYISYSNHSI

Compound | z-score
O=C(NCCCN1CCOCC1)c1cc(-c2cccs2)on1 | 0.133
O=C(Nc1ccc(Cl)c(C(F)(F)F)c1)C1CCCN(S(=O)(=O)c2cnc[nH]2)C1 (stereo not given) | -0.239
Cc1ccc(NCc2nnc(SCC(=O)N(Cc3ccccc3)C(C)(C)C)o2)c(C)c1 | -0.222
CCC(C(=O)O/N=C(\N)c1ccc(C)cc1)c1ccccc1 (stereo not given) | -0.567
Cc1ccccc1-c1n[nH]c(=S)n1/N=C/c1c(C)nn(-c2ccccc2)c1C | -0.239
COc1ccc(C(=O)Nc2nc3ccc4nc(C)sc4c3s2)cc1 | -0.0988
O=C1CSC(c2cccs2)N1c1ccccc1 (stereo not given) | -0.535
COC(=O)CSc1snnc1-c1ccc(Cl)cc1Cl | -0.636
O=C(NC1CCCCC1)c1cc([N+](=O)[O-])ccc1N1CCCCC1 | -0.0354
COc1ccc(Cl)cc1Nc1nc(C)cc(=O)[nH]1 | 0.0899
CC(C)CNc1nc(N)c([N+](=O)[O-])c(NCC2CCCO2)n1 (stereo not given) | -0.387
COc1cccc(-c2nnc(-c3ccc(C)o3)o2)c1 | -0.716
Cc1[nH]n(-c2ccccc2)c(=O)c1/C=N/NC(=O)c1ccoc1C | 0.102
Cc1cc(NC(=O)CN2CC(C)OC(C)C2)n(-c2nc3ccccc3s2)n1 (stereo not given) | -0.352
CC(=O)c1ccc(OCC(O)CN2CCN(CCO)CC2)cc1 (stereo not given) | -0.317
CCNC(=S)NNC(=O)c1cc(-c2cccc(C)c2)nc2ccccc12 | 0.214
COc1ccc2nc(NC(=O)CCN3C(=O)c4ccccc4C3=O)sc2c1 | -0.0132
O=C(CNC(=O)c1ccc(Cl)cc1)N/N=C/C=C/c1ccccc1 | 0.787
COc1cc(S(=O)(=O)NCCc2ccc3c(c2)OCO3)ccc1-n1cnnn1 | -0.733
C=CCOC(=O)/C(=C\c1ccccc1)NC(=O)c1ccco1 | -0.214
O=C(Nc1ccc(Cl)cc1C(=O)NCc1cccnc1)c1ccco1 | -0.0127
CC1=NC(C(F)(F)F)(C(F)(F)F)C(C#N)=C(C)N1 | -0.0703
O=c1[nH][nH]c(-c2ccccc2)c1C=Nc1ccc(Cl)cc1 | -0.231

Compound | z-score
O=C(CSCCO)Nc1cccc2ccccc12 | -0.204
CCc1c(C)[nH]c2ccc(C)cc2c1=O | -0.0673
CN(c1ccccc1)S(=O)(=O)c1cccc(NC(=O)CSc2nnc(N)s2)c1 | -0.275
CCCCOc1ccc(Nc2nc(C)cc(C)c2C#N)cc1 | 0.234
Cc1c(C)c2ccc(OCC(=O)N(C)C)c(C)c2oc1=O | -0.421
O=C(COC(=O)c1cc([N+](=O)[O-])ccc1NCCO)c1ccc(Cl)cc1 | 0.0834
CCN1CCN(C(=O)Nc2ccccc2OC)CC1 | 0.443
CCc1ccccc1NC(=O)N[C@H](C(=O)O)C(C)CC (stereo not given in full) | -0.0637
Cc1ccccc1-n1c(C)cc(/C=N/Nc2ccc([N+](=O)[O-])cn2)c1C | 0.435
COc1cc(SC)ccc1C(=O)Nc1ccccc1 | -0.582
Cc1sc2c(c1C)c(=O)nc1n2Cc2ccccc2-1 | 0.174
CCc1ccc(C(=O)NC(=S)Nc2ccc3c(c2)OCCO3)cc1 | 0.946
COc1cc2c(cc1OC)C(c1ccncc1)CC(=O)N2 (stereo not given) | 0.215
Cc1cccc(NS(=O)(=O)c2ccc(C3CCCCC3)cc2)n1 | 0.108
COc1ccc(-c2noc(C3CCCN(S(=O)(=O)c4cccc(Cl)c4)C3)n2)cc1OC (stereo not given) | 0.0265
O=C(Oc1cccc2c(OC(=O)N3CCOCC3)cccc12)N1CCOCC1 | -0.205
O=C1NC(=S)N/C1=C\c1cccc([N+](=O)[O-])c1 | 0.776
COC(=O)CSc1nnc(CNC(=O)Cc2ccccc2)n1C | -0.397
COC(=O)c1ccc(Oc2ccc3nncn3n2)cc1 | -0.148
CNC(=O)c1cc2cc(Cl)cc(OC)c2oc1=O | -0.116
Oc1ccc(Br)cc1-c1cc(-c2ccc(Cl)cc2)n[nH]1 | 0.0892
CCOC(=O)c1c(NC(=O)Cn2nc([N+](=O)[O-])c(Br)c2C)sc2c1CCC(C)C2 (stereo not given) | 0.483
O=C(Nc1c(F)cc(F)cc1Br)c1ccco1 | 0.609

Compound | z-score
Cc1ccc(SCCNC(=S)Nc2cc(C)ccc2C)cc1 | -0.215
Oc1c(C=C2N=c3ccccc3=N2)sc(=S)n1-c1ccc(F)cc1 | 0.283
CC1CCN(C(=O)CSc2nnc(-c3ccc(S(=O)(=O)N4CCOCC4)cc3)n2C)CC1 | 0.855
CC(C)(C)c1[nH]nc2c1C(c1ccncc1)C(C#N)=C(N)O2 (stereo not given) | -0.619
O=C(O)/C=C\C(=O)Nc1ccccc1F | 0.0594
COc1ccc(NC(=O)CCC(=O)OCc2ccc(C(=O)Oc3ccc(Cl)cc3)cc2)cc1 | -0.22
COc1ccc(C(=O)CSc2nnc(CNc3nc(-c4ccccc4)cs3)n2C)cc1 | -0.0858
O=C(CSc1ccccn1)N1CCN(c2cccc(Cl)c2)CC1 | -0.00977
COC(=O)c1cc(NC(=O)c2ccoc2C)cc(C(=O)OC)c1 | active: 4.89
Cc1nn(-c2ccccc2)c(N)c1N=Nc1ccccc1 | -0.356
Cc1ccc(N=Nc2c(N)[nH]n3c(=O)cc(C)nc23)cc1 | -0.294
O=C(c1cc2c(s1)CCCC2)N1CCN(Cc2ccc3c(c2)OCO3)CC1 | -0.76
Cc1ccc(S(=O)(=O)N(C)Cc2nc(-c3ccc(Br)cc3)no2)cc1 | -0.28
Cc1cc(=O)n2nc(N3CCCC(C(=O)NC(C)c4ccccc4)C3)sc2n1 (stereo not given) | -0.086
CC(C)(C)c1cc2cccnc2n1Cc1cccc(Cl)c1 | -0.113
Cc1onc(-c2ccccc2)c1C(=O)n1cc(Br)cn1 | -0.588
CC(C)Cn1c(-c2ccccc2F)n[nH]c1=S | 0.078
COc1ccc(S(=O)(=O)N2CCC[C@H]2C(=O)NC2=NCCS2)cc1 | -0.0506
CCc1nnc(NC(=O)[C@@H](NC(=O)c2cccc(S(=O)(=O)N3CCOCC3)c2)C(C)C)s1 | -0.734
CC1Cc2ccccc2N1C(=O)c1ccc2snnc2c1 (stereo not given) | -1.46
CCCC1=C(C(=O)OCC)C(c2ccc(O)cc2)n2ncnc2N1 (stereo not given) | -1.1
CC(C)OCCCNC(=O)c1sc(=S)n(C)c1N | -0.0619
COc1ccc2[nH]c(C)c(CCN3C(=O)C4C5C=CC(C5)C4C3=O)c2c1 (stereo not given) | -0.454

Compound | z-score
Oc1[nH]c2ccccc2c1C=Nc1ccc2c(c1)OCCO2 | 0.883
O=C1CSC(c2cccc(Cl)c2Cl)N1c1ccccn1 (stereo not given) | 0.398
CCn1c(C)nc2cc(C(=O)NNS(=O)(=O)c3c(C)c(C)cc(C)c3C)ccc21 | -0.328
COc1cc(CN2CC(=O)N(c3ccc(C)c(C)c3)C2=S)cc(OC)c1OC | -0.981
Cc1ccc(/C(N)=N/OC(=O)c2ccc(F)cc2)cc1 | -0.0315
CC1=NN(c2nc(-c3ccc(C)cc3)cs2)C(=O)C1N=Nc1ccc2ccccc2c1 (stereo not given) | 0.0348
CC(C)Nc1nc(NC(C)C)nc(N(C)N)n1 | -0.143
O=C(O)c1cccc(S(=O)(=O)N2CCOCC2)c1 | 0.438
COc1cc(C(=O)N2CCN(C(=O)COc3ccc4ccccc4c3)CC2)cc(OC)c1OC | 0.348
Cc1ccn2c(C(=O)c3ccc(Cl)cc3)cnc2c1 | 0.282
Cc1ccccc1SCc1noc(C(=O)NC(C)C)c1C(=O)O | -0.223
CCCN1C(=O)/C(=C\c2ccncc2)SC1=Nc1ccccc1 | 0.523
C=CCn1c(NCCc2ccccc2)nc2c1c(=O)n(C)c(=O)n2C | 0.0292
c1ccc2c(c1)CCN(c1nc3ccccc3n3cnnc13)C2 | -0.508
O=C(NCc1ccc(Cl)cc1)c1ccc(COCC(F)(F)F)o1 | -0.172
CCN(CC)C(=O)CSc1nc2c(sc(=S)n2-c2ccccc2)c(=O)n1Cc1ccco1 | -0.562
O=S(=O)(c1ccc(Cl)cc1)c1cnc(-c2cccnc2)nc1-c1ccccc1 | -0.132
CCOCC(=O)Nc1c(C(=O)Nc2ccc(OC)cc2OC)oc2ccccc12 | 0.0425
CCN1CCN(C(=S)Nc2ccc3nc(N4CCN(C)CC4)cc(C)c3c2)CC1 | 0.0989
C=C(C)C1CC=C(C)/C(=N/NC(=O)c2cccc([N+](=O)[O-])c2)C1 (stereo not given) | 0.396
Cc1nonc1NC(=O)N1CCCC1 | -0.0831
CCOC(=O)N1CCN(C(=O)c2nc3ccccc3s2)CC1 | 2.8
CCCOc1ccc(/C=N/Nc2ccccc2[N+](=O)[O-])c(O)c1 | -0.138

Compound | z-score
Cc1ccc(C(=O)CSc2nnc(COc3ccc(C#N)cc3)n2-c2ccccc2)cc1 | 0.655
CC(=O)Nc1ccc2ccccc2c1 | -0.118
CC(=O)N1N=C(C)CC1c1ccc(OCc2ccccc2)cc1 (stereo not given) | -0.0267
CSc1nc2ccc3nc(NC(=O)c4ccc(C)cc4)sc3c2s1 | -0.276
Cc1n[nH]c(C)c1C(=O)CC1(O)C(=O)N(CCc2ccccc2)c2ccc(Cl)cc21 (stereo not given) | 0.473
Cc1cccc(Oc2coc3cc(OC(=O)c4cc5ccccc5oc4=O)ccc3c2=O)c1 | -0.0322
NC(=S)Nc1nc2ccccc2[nH]c1=O | 0.608
CCC(C(=O)O/N=C(\N)c1cccc(C)c1)c1ccccc1 (stereo not given) | -0.667
O=C(COC(=O)c1cccnc1Cl)c1cccc(Cl)c1 | -0.133
CCC1CCCCN1C(=O)CSc1nnc(-c2cccs2)o1 (stereo not given) | 0.801
O=C1c2cccc(OCC(=O)N3CCCc4ccccc43)c2CCN1Cc1ccc(Br)cc1 | -0.133
N#Cc1ccc(Cl)cc1NC(=O)COC(=O)c1ccc2c(c1)OCCO2 | 0.363
c1ccc(OCc2nc(-c3cccs3)no2)cc1 | 0.455
COc1ccc2nc(SCC(=O)NC(C)C)[nH]c2c1 | 0.0246
N#Cc1c(-c2cccnc2)c2c([nH]c1=S)CCCC2 | -0.285
Cc1ccc(N(c2ncnc(N)c2[N+](=O)[O-])C2CCCCC2)cc1 | -0.189
CCN(CC)S(=O)(=O)c1ccc(S(=O)(=O)N(CC(=O)Nc2ccccc2)Cc2ccco2)cc1 | -0.083
COC(=O)c1ccc(CSc2nc3ccccc3[nH]2)o1 | 0.0676
Cc1ccc(OCC(=O)N/N=C/c2cccn2C)cc1 | 1.01
COn1c2c(c3c4nonc4ccc31)CCCC2 | -0.606
CCCSc1nnc2n(N)c(=O)c3ccccc3n12 | -0.437
CCC(=O)Nc1c2c(nn1-c1ccccc1C)CSC2 | -0.809
CCCCOc1ccc(NC(=O)CSc2nnnn2C)cc1 | 0.6
